Measurements: PubChem BioAssay AID743279 (National Center for Advancing Translational Sciences (NCATS), 2014)
In all, about 360,000 compounds went through this assay and about 17,000 (4.7%) were called active. Inconclusive results, whose numbers are uncertain, are shown with a selection of clear calls. Cut-off read from the data, not from the text of the source: active = activity change below about -50%; inconclusive = mostly about -30% to -49%; inactive = weaker than that.

test: qHTS for Inhibitors of Inflammasome Signaling: IL-1-beta AlphaLISA Primary Screen; details: THP-1 LPS/ATP IL-1B secretion, 16 h; at 57.5 µM, hits give low values
Summary of the method: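 THP-1 cells pretreated 1 hr with compounds (up to 57.5 uM final), then stimulated with LPS (250 ng/mL final) plus ATP (1.25 mM final); secreted IL-1B measured by AlphaLISA after 16 hr, decreased signal indicating inhibition.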
% is set by controls: 0 for no effect and ±100 for the full control effect.

Activity change, inconclusive:
CS(=O)(=O)N(CC(=O)Nc1cccc([N+](=O)[O-])c1)c1cccc(F)c1 -39.7%
Cc1ccc2c(Cl)c(C(=O)NC3CC3)sc2c1 -43.1%
CCc1c(-c2cccc(Cl)c2)ncn1Cc1cccc(-c2ccccc2)c1 -30%
CC1CCN(S(=O)(=O)c2ccc(NC(=O)CN3C(=O)NC(C)(c4ccccc4)C3=O)cc2)CC1 (stereo unspecified) -44.3%
COc1ccc2nc(/N=C(\N)NC(=O)C(C)(C)C)nc(C)c2c1 -45.8%
COc1ccc2nc3oc(C(=O)NCCCOC(C)C)cc3cc2c1 -34.2%
COc1ccc(OC)c(Nc2nc(N)c([N+](=O)[O-])c(N3CCOCC3)n2)c1 -31%
Cc1cccc(C(=O)N2CCN(c3ccc([N+](=O)[O-])c(N4CCOCC4)c3)CC2)c1 -40.1%
COc1ccc(-c2nc3cc(NC(=O)Cc4ccc(OC)c(OC)c4)ccc3o2)cc1 -39.9%
CCOc1ccccc1Nc1nnc(SCc2nnc(-c3cc(OC)c(OC)c(OC)c3)o2)s1 -32.1%
CCN1C(=O)C2(Nc3ccccc3-c3nc4ccccc4n32)c2cc(OC)ccc21 (stereo unspecified) -32.6%
Cc1cc(F)ccc1NCc1cc2c(cc1[N+](=O)[O-])OCO2 -31.5%
CN(C)S(=O)(=O)N1CCN(CC(O)COc2ccc(-c3ccccc3)cc2)CC1 (stereo unspecified) -35.1%
O=C(Nc1cccc(NC(=O)c2ccc(Br)o2)c1)c1ccccc1 -43.4%
CNC(=O)CSc1nc2ccccc2c(=O)n1-c1cc(OC)ccc1OC -33.6%
C=CCNC(=O)/C(C#N)=C/c1ccc(C)o1 -39.1%
Cc1cc(C(=O)OCC(=O)Nc2cc(C(F)(F)F)ccc2N2CCOCC2)c(C)o1 -44.3%
O=C(Nc1ccc2c(c1)OCCO2)C(=O)c1c[nH]c2ccccc12 -41.5%
COc1ccc([N+](=O)[O-])cc1N/C(=N/S(=O)(=O)c1ccccc1)c1ccccc1 -36.1%
O=C(NCc1cccc(Cl)c1)c1cc(COc2ccc3ncccc3c2)on1 -45%
O=[N+]([O-])c1ccc(Oc2ccc(F)cc2Br)c2ccncc12 -48.4%
COc1ccc(/C=C2\SC(=O)N(CC(=O)Nc3ccc(F)cc3)C2=O)cc1O -32.8%
O=C(Nc1cccc(Cl)c1)c1cncn1-c1ccc(F)cc1 -36.5%
O=C1N(c2ccccc2)C2CS(=O)(=O)CC2N1c1ccc(Br)cc1 (stereo unspecified) -33.7%
COC(=O)CNC(c1ccccc1)c1cc(Br)ccc1NC(=O)CNC(=O)OCc1ccccc1 (stereo unspecified) -31.6%
COc1ccc(CN(C(=O)/C=C/C(=O)c2ccc(OC)cc2O)C(C(=O)NC2CCCCC2)c2ccncc2)cc1 (stereo unspecified) -37%
O=C(/C=C/Nc1ccc(Nc2ccccc2)cc1)c1cccs1 -43.5%
CCCC(=O)Nc1ccc2c(c1)C(=O)N(C)C[C@@H](OC)[C@H](C)CN(Cc1ccc(-c3ccccn3)cc1)[C@@H](C)CO2 -34.2%
O=C(CN1C2=NCCN2c2ccccc21)C12CC3CC(CC(C3)C1)C2 -44.7%
Cn1c(SC/C=C/c2ccccc2)nnc1-c1cccs1 -35.9%
CN(Cc1ccc(Cl)s1)C(=O)CNC(=O)CNC(=O)c1ccc(Cl)cc1Cl -31.7%
COc1ccccc1C(=O)NCCn1cc(SCC(=O)Nc2cc(C)on2)c2ccccc21 -38.3%
CC(C)NC(=O)CN(C(=O)CCC(=O)Nc1nccs1)c1ccc(C(C)C)cc1 -45.3%
CCOC(=O)c1c(NC(=O)/C=C/c2ccc3c(c2)OCO3)sc(C)c1CC -49.3%
COc1ccc2c(Cl)c(C(=O)NN)sc2c1 -39%
O=C(CC(c1ccccc1)c1ccccc1O)NCc1ccccc1Cl (stereo unspecified) -34%
Cc1cc(OCC(=O)Nc2ccc(N3CCN(C)CC3)cc2)ccc1Cl -43.2%
O=C(N/N=C/c1ccc(C(F)(F)F)cc1)c1ccc(O)cc1 -46%
C=CCNCCOc1ccc(C(C)(C)c2ccccc2)cc1 -37.3%
Cc1ccc(S(=O)(=O)N(CC(=O)Nc2cccc(C(F)(F)F)c2)C(=O)N2CCN(C)CC2)cc1 -37.9%
Cc1ccc(C2CC(c3ccccc3)=NN2c2ccc(S(N)(=O)=O)cc2)cc1 (stereo unspecified) -33%
CC(C)Cn1cnc2c(SCc3ccccc3Cl)nc(N)nc21 -36.9%
Cc1ccc(CN(Cc2cccnc2)C(=S)Nc2cccc(Cl)c2C)cc1 -46.8%
COc1ccc(C(c2nnnn2Cc2cccs2)N2CCN(c3ccc(F)cc3)CC2)cc1OC (stereo unspecified) -44.7%
COC(=O)c1ccccc1NC(=O)COC(C)=O -32.1%
O=C(N/N=C/c1cc(Br)c(Br)o1)c1cc2ccccc2o1 -34.6%
COc1ccc(OC)c(/C=N/N(C)c2ccccc2)c1 -45.5%
Cc1nc(C)c(-c2csc(Nc3cccc(O)c3)n2)s1 -45.4%
Cc1nc(Nc2ccccc2Cl)sc1C(=O)Nc1ccccc1 -38.2%
O=C(c1ccccc1)c1nc[nH]c1C(=O)Nc1ccccc1 -30.3%
Cc1ccc(C(=O)Nc2sc3c(c2C#N)CCCCC3)cc1C -41.5%
Clc1ccc(COc2ccccc2CNCc2cccnc2)cc1 -35.7%
Cc1ccc(C(C(=O)NC2CCCCC2)N2CCC3(CC2)OCCO3)cc1 (stereo unspecified) -31.1%
CSc1cccc(NC(=O)c2cc(S(=O)(=O)N3CCCC3)cn2C)c1 -30.7%
O=C(CCCc1c[nH]c2ccccc12)NCCc1c[nH]c2ccccc12 -35.1%
Cc1ccccc1S(=O)(=O)Cc1ccc(C(=O)NC2CCCCC2)o1 -41.3%

Activity change, inactive:
CO/N=C/C(=N\Nc1ccccc1)C(=O)c1ccccc1 -7.44%
O=C(Nc1cccc(F)c1)C1CCN(C(=O)NCc2ccccc2)CC1 8.42%
CC1=C(CC(=O)O)c2cc(F)ccc2/C1=C\c1ccc(S(C)=O)cc1 (stereo unspecified) 12.8%
O=C(CCCCCNc1nc(=S)[nH]c2ccccc12)NCCC1=CCCCC1 32.3%
COc1ccc(C2=NOC(C(=O)NCc3cccnc3)C2)cc1 (stereo unspecified) 30.1%
O=C(N=C1SC2CS(=O)(=O)CC2N1c1ccc(F)cc1F)C1CC1 (stereo unspecified) 2.95%
CCOC(=O)c1ccc(Oc2ccc(C(F)(F)F)cn2)cc1 -2.49%
COC(=O)c1cc(C(=O)Nc2cc(C)on2)cc([N+](=O)[O-])c1 -9.1%
C=CCNC(=O)c1cc(-c2ccncc2)nc2c(C)cc(C)cc12 -29.3%
COc1ccc(S(N)(=O)=O)cc1C(=O)N(C)CC(=O)Nc1ccc(N2CCOCC2)cc1 -0.617%
CCCNC(=O)C1(C)CCCN(Cc2ccc(-c3ccccc3)o2)C1 (stereo unspecified) -22.9%
COc1ccc2nc(Nc3nc4cc5c(cc4s3)OCO5)sc2c1 37.7%
CCOC(=O)c1ccc(NC(=O)CNNC(=O)COc2ccccc2C)cc1 -22.2%
Cc1cccc(Cn2cnc3c(nnn3Cc3ccc(F)cc3)c2=O)c1 -4.53%
CC(C)C[C@@]12C(=O)N(c3cccc(F)c3)C(=O)N1[C@H](c1ccc(Br)cc1)[C@@H]1C(=O)N(C(C)(C)C)C(=O)[C@@H]12 -1.94%
Cc1ccc2c(c1)N(CC(=O)N1CCN(c3nc4ccccc4s3)CC1)C(=O)C(C)O2 (stereo unspecified) -8.51%
Cc1cccc(N2CCN(C3=NC(=O)C(=C4CCCCC4)S3)CC2)c1 -12.5%
COC(=O)c1ccccc1NC(=O)/C=N/O -0.332%

Activity change, active:
CC(C)C[C@H]1CN=C(Nc2ccccc2)N1CCCC1CCCCC1 -63.1%
CCN1C/C(=C\c2cccc([N+](=O)[O-])c2)C(=O)/C(=C/c2cccc([N+](=O)[O-])c2)C1 -104%
CC(Sc1nnc2c(n1)[nH]c1ccccc12)C(=O)N(C)C1CCCCC1 (stereo unspecified) -55.9%
O=C(/C=C/c1ccc(Cl)cc1)Nc1ccc(CN2CCOCC2)cc1 -50.9%
O=C1C(Nc2ccc(O)cc2)=C/C(=N/S(=O)(=O)c2cccs2)c2ccccc21 -99.5%
CCOC(=O)c1cnc2ccc(C)cc2c1N(C)Cc1ccccc1 -68.1%
Cc1cc(C)c2sc(N(CCCN(C)C)C(=O)c3ccc(S(=O)(=O)N(C)C4CCCCC4)cc3)nc2c1 -95.4%
CC(NC(=S)NCc1ccc(F)cc1)C12CC3CC(CC(C3)C1)C2 (stereo unspecified) -84%
CNc1ccccc1C(=O)OC(C)C(=O)Nc1ccc(Cl)cn1 (stereo unspecified) -74.8%
CCOc1ccc2nc(N3CCCC(C(=O)NCCCN4C(C)CCCC4C)C3)sc2c1 (stereo unspecified) -69.7%
c1cncc(CSc2ccc(-c3ccc4c(c3)OCO4)nn2)c1 -51.1%
Clc1ccc(-c2cc(C3CCNCC3)[nH]n2)c(Cl)c1 -79.9%
